Source: publication PMC4433240
Like-named read-outs stand apart in the source and are kept apart here. Results are given in words; binding and its absence hold for the method and conditions named. Some binding calls cover weakened binding; strength is not graded here.

Amino acid sequences for entries named in this document (tags omitted).
UniProt Q39128: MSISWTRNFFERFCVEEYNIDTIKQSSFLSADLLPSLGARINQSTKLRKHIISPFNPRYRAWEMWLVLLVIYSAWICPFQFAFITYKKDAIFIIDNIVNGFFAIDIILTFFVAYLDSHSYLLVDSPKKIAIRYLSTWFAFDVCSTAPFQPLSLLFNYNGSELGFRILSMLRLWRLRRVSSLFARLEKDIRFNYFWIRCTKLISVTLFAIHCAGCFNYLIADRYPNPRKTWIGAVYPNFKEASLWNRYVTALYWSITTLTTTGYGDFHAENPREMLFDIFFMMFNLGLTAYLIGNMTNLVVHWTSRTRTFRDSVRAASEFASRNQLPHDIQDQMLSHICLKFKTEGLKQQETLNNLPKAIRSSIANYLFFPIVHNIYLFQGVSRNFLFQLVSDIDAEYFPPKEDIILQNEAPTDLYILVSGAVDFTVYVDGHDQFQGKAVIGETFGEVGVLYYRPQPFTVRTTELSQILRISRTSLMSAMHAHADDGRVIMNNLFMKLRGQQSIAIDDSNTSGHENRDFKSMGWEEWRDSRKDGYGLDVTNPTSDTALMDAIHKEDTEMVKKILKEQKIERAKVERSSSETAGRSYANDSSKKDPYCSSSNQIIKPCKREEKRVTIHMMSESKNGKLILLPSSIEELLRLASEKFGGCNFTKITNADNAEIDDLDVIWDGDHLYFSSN

T1: DAF-4, the type II receptor (C. elegans) (UniProt P50488)
T1 sequence: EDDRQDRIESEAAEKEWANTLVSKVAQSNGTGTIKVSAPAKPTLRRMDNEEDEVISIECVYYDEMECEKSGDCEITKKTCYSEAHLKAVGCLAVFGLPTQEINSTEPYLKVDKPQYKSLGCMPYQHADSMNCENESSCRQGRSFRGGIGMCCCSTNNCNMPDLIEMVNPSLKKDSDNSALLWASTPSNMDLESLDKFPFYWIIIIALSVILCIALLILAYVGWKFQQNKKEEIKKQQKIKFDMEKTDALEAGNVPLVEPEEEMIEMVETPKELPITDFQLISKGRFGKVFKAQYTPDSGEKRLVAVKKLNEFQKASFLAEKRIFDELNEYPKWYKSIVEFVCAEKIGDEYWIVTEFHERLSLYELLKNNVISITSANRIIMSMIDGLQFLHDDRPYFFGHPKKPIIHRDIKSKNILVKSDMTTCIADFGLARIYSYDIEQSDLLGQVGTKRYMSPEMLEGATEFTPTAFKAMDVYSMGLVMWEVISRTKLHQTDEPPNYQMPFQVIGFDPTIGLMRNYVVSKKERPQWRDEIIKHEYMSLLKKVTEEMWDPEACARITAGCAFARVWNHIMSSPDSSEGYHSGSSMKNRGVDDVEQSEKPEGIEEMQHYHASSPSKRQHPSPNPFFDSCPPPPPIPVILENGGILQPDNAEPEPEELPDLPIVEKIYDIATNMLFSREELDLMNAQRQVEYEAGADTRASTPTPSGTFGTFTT

T2: SMA-6, the type I receptor of the Sma/Mab pathway (C. elegans) (UniProt Q09488)
T2 sequence: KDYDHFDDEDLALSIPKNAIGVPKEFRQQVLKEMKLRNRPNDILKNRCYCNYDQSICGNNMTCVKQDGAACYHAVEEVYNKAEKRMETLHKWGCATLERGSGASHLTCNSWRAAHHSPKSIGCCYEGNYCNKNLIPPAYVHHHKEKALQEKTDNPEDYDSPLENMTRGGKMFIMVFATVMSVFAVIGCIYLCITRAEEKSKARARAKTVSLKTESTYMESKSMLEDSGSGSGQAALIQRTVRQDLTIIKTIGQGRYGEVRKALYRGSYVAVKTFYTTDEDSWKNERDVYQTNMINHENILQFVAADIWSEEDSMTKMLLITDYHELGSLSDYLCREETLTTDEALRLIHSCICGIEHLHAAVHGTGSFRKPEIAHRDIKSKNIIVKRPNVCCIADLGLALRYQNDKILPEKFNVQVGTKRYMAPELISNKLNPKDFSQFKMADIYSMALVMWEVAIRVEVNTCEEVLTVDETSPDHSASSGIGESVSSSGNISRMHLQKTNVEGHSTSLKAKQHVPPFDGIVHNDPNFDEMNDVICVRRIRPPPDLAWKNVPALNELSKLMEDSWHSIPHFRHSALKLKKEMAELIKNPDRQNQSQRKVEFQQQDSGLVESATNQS

T3: tetraspanin-21 (TSP-21) (C. elegans) (UniProt Q5WRN1)
T3 sequence: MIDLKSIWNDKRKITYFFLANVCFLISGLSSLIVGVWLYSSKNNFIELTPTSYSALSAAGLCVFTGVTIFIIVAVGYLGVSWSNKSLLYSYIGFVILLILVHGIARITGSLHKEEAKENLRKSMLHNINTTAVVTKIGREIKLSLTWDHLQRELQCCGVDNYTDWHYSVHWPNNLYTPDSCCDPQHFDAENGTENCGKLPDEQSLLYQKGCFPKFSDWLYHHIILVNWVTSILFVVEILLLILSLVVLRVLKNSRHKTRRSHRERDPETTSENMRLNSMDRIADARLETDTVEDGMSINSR

B1: tetraspanin-21 (TSP-21) (protein, UniProt Q5WRN1 1-301)
chain: MIDLKSIWNDKRKITYFFLANVCFLISGLSSLIVGVWLYSSKNNFIELTPTSYSALSAAGLCVFTGVTIFIIVAVGYLGVSWSNKSLLYSYIGFVILLILVHGIARITGSLHKEEAKENLRKSMLHNINTTAVVTKIGREIKLSLTWDHLQRELQCCGVDNYTDWHYSVHWPNNLYTPDSCCDPQHFDAENGTENCGKLPDEQSLLYQKGCFPKFSDWLYHHIILVNWVTSILFVVEILLLILSLVVLRVLKNSRHKTRRSHRERDPETTSENMRLNSMDRIADARLETDTVEDGMSINSR
B2: TSP-12 (protein, UniProt Q22495 1-308)
chain: MANRRQPVQHRAQQRVYRQSQIRYAPGAGGESEISCCVKYSVFSFNVIFFLLGFGLLLFGVWAQIEKNTFVNMLSKASKLYLDPTWPLLIVGFLTFIIGFSGCVGSLRENTSFLTFYSTLLGLLLIAEFSAGVFAYACRDQLDNYIRNLLNDVVVGYRDDPDLQLLIDSMQETWMCCGINGADDWDRNTYFSIEAREVASPEAGGVPFSCCINSSKLEFKNYFCGHGVRLKPESHMAAHLAAQRVMAHTASIYTEGCLPKLQLWLNNNMLLVAVSMVIIAIIQVLGICFAQNLKSDILAQRAKWYYTH
B3: TSP-14 (protein, UniProt H2L006 1-451)
chain: MPHRAPRRFMKTAPGACDWEQCLLMGSGEPTRARAVVSSSHKQRKPRQEISACLKWLVFLLNSIVFLVGVGILALGVYLFIKDFREVKLVDIILNPAILISIFGFSICVVSFFGFMGALRDNIFLLKCFAACVFLSYILVVAVTLVFFTLFYTDTTEGLSANWLLLYAVKNYHTNRNLAEIMDALQENLECCGVSSIAQGYRDWNMSYQFNCTNSNPQPEKCGVPFSCCRKSVISEAAGSSNPLLPAMRSLECWQNALTKRPGDLEHDIYTRGCLQPLRTLFESHAVHVGAFVALLIVPVCISVCLTNILAKQVDHQRYLLEREARRNDRRRKRDHNRRDQLNSLDLLEEGKFNNASANATRPRPPDIPPPLPPIEHVPRKKSRNASSSPTRKPKSAGVENAAARRKRTATTTRTPPAAAGPAPTPQATTTNRTHQWVLQQTDLVPQKSKS
B4: C. elegans ABC transporter HMT-1 (protein, UniProt G5EFD4 1-801)
chain: MGFSPFLDECRAEGLWPIGPSCNKIISFGVYTFFIVVNFIVLCIPNSNSANNNYRRMTDDDASSTSKLTISKILSICTIFAVICQSIFYFCFTFYFHPYTHLLLAFCVSKLFFWILSLCSFSKWRNQPSTPISLAFAFSAALLIHCIPLTDWKKYFEPTSKNRGDLTFYIIELALVTVVFFFTIVTGLFNFSGCSSRESAWNNLSKKVVTVAPYIWPTKSISLQLRVVFCLFLLIIGRLINVSLPILSKWIVDELATPDTFQYSLLFLATFLKFLQGNGAMGGFLNTVRTYLWIPIQQYTTRELEVELFKHLHSLSLRWHLSRKTGQVLRVMDRGTSSVNNILNYILFNVVPTIADIVIAVIFFFSAFNAYFGLIVFGTMALYLTVTISITEWRTQYIREANEKDNATSAIATDSLINYETVKYYGNEEFEVNRFKNAIESYQVTEWKTQASLAFLNCLQNAIIGIGMIGGSVFVVYMIVHEKTLTVGDYVLFTTYLLQLYTPLNFFGTIYRVIQKAFVDMENMFDLMNDEVEVKDLPHALPYTDPRGTISVKNLTFEYNTGLPVIKNISFEIGNGQTVALVGSSGSGKSTLIRLLFRLFESTEGSIEFDGIDVRNYTMHSLRQQIGIVPQDTVLFNDTIMYNIRFGRPDASDEEVIEAAKAAMIHEKITSLPEGYATMVGERGLKLSGGEKQRVAIARTILKKPQFIFLDEATSALDTPTERAIQKCLEKLCKSRTGVVVAHRLSTVVNADLILVLDKGIILERGNHKELLAQQGTYASMWEAQIAEQRAKSIELGEELP

Assays:
Assay in all cases: two-hybrid; mating-based split-ubiquitin system (mbSUS) in budding yeast; bait Cub-PLV fusions and prey NubG fusions in mated diploid cells; growth on SC-Trp,-Leu,-Ade,-His,-Ura,-Met plates with 0, 0.075, 0.150 or 0.300 mM methionine, 2-9 days at 30°C
[1] = biological target: T1, DAF-4, the type II receptor (C. elegans)
[2] = biological target: T2, SMA-6, the type I receptor of the Sma/Mab pathway (C. elegans)
[3] = biological target: plant potassium channel KAT1 (UniProt Q39128)
[4] = biological target: T3, tetraspanin-21 (TSP-21) (C. elegans)
[5] = biological target: T2, SMA-6, the type I receptor of the Sma/Mab pathway (C. elegans); remark: listed apart in the source
[6] = biological target: T3, tetraspanin-21 (TSP-21) (C. elegans); remark: listed apart in the source
[7] = biological target: plant potassium channel KAT1 (UniProt Q39128); remark: listed apart in the source
[8] = biological target: T1, DAF-4, the type II receptor (C. elegans); remark: listed apart in the source

Molecule | binding [1] | binding [2] | binding [3] | binding [4] | binding [5] | binding [6] | binding [7] | binding [8]
plant potassium channel KAT1 (from UniProt Q39128 1-677) | no binding | no binding | binds | no binding |  |  |  | 
B1 |  |  |  |  | no binding | binds |  | 
B2 |  |  |  |  | binds | binds | no binding | 
B3 |  |  |  |  | binds | binds | no binding | binds weakly
B4 |  |  |  |  |  | no binding |  | 
